Among the data in PubChem BioAssay AID488969 (Vanderbilt High Throughput Screening Facility, 2010) are z-score values, retold here.

In all, about 110,000 compounds were measured (“z-score”: median about -0.1, highest 2% from about 2 on). The list shows a part of the results.

For this assay, the target named is Metabotropic glutamate receptor 8 (Rattus norvegicus) (UniProt P70579). Kind of assay: rat mGluR8 modulators via GIRK flux, primary screen, cell-based, thallium flux, HTS (AID 488969). To be noted: HEK293 rat mGluR8, GIRK (G protein-gated inwardly rectifying potassium channel) thallium flux, FluoZin2; at 10 µM; stronger effect = higher value; submaximal glutamate (EC20) added with thallium.
Chain of UniProt P70579 (P70579 whole entry, looked up): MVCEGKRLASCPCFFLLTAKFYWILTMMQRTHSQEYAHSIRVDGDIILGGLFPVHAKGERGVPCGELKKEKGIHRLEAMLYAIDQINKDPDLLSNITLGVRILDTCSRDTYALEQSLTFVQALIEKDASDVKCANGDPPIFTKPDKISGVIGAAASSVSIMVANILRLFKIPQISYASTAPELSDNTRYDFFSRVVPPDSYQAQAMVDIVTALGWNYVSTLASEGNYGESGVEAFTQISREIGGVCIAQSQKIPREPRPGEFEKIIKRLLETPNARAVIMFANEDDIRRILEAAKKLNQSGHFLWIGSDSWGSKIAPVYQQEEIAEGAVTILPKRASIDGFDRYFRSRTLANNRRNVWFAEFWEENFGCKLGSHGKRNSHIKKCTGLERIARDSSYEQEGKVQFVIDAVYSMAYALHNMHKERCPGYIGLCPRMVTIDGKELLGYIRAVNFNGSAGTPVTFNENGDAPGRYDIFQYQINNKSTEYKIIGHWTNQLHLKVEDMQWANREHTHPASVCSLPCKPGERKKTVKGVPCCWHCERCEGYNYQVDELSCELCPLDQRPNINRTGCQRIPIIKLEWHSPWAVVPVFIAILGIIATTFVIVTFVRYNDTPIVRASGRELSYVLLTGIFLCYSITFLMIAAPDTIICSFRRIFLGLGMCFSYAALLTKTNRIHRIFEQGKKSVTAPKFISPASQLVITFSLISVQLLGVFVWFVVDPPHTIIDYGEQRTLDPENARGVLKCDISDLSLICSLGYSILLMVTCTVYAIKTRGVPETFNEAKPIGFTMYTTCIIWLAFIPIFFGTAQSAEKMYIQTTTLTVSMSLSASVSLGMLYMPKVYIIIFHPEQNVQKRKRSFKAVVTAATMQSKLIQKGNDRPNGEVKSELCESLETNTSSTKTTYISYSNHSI
`Fc1ccc(CNn2cnnc2SCc2ccc(F)cc2)cc1` returned a z-score of -0.127.

`COc1cccc(-c2csc(N3CCN(CC(=O)NNC(=O)c4ccc(Br)cc4)CC3)n2)c1`: the z-score amounted to 0.0337.

`COc1ccc2nc(NC(=O)CN(c3ccc(C)cc3)S(=O)(=O)c3c(C)nn(C)c3C)sc2c1` registered a z-score of 0.03.

As to `CN(C)N=C1c2cc(S(=O)(=O)N3CCOCC3)ccc2-c2ccc(S(=O)(=O)N3CCOCC3)cc21`, the z-score is -0.229.

In turn, `NS(=O)(=O)c1ccc(NC(=O)NC2CCCCC2)cc1` gave a z-score of 0.541.

`O=C(Nc1ccccc1-c1ccccc1)c1ccc(NC(=O)c2ccco2)cc1` had a z-score of -0.624.

In turn, `O=C(N1CCN(c2cccc(Cl)c2)CC1)C1(c2cccs2)CCOCC1` gave a z-score of -0.822.

The compound `CC(C)(C)C(=O)COC(=O)c1ccccc1O` yielded a z-score of -0.0524.

On to `Cc1ccc(NC(=O)Cn2nnc(C(=O)NCc3ccco3)c2N)cc1`, for which the z-score is 0.0407.

Turning to `CCC(=O)Nc1nnc(SCCOC)s1`, the z-score was 0.214.

On to `CC(=O)c1ccc(NC(=O)c2cn(-c3ccccc3)nc2-c2ccncc2)cc1`, for which the z-score is -0.0209.

Consider `COc1ccccc1-c1nnc(Sc2nc([N+](=O)[O-])nn2C)o1`, for which the z-score was 0.987.

`CCOC(=O)c1nn(-c2ccccc2)c(-c2ccccc2)c1C(=O)c1ccccc1` yielded a z-score of -0.133.

Consider `Cc1nn(Cc2ccccc2)c2sc(C(=O)N3CCN(Cc4ccc5c(c4)OCO5)CC3)cc12`, for which the z-score was -0.287.

With `COC(=O)c1c(C(=O)OC)c2cccc3cc(-c4ccccc4)c4ccc1c4n32`, the z-score is -0.299.

For `COc1cnc(N(C)C)nc1Sc1ccc(Cl)cc1`, the z-score was -0.095.

Take `O=C(CCc1ccccc1)NNC(=O)C12CC3CC(CC(C3)C1)C2`: the z-score was determined as 0.672.

`O=C(Cn1nc(C(F)F)cc1C(F)F)NNC(=S)Nc1ccc(Cl)cc1` had a z-score of -0.189.

`Nc1ncnc2c1CCC2` had a z-score of 0.328.

In the case of `Cc1csc(=Nc2ccccc2)n1CCO`, the z-score is -0.139.

With `O=C(CN(C(=O)CNC(=O)c1cccs1)c1ccc2c(c1)OCCO2)NC1CCCC1`, the z-score turned out to be 0.818.

The compound `O=C(C1CCN(S(=O)(=O)N2CCC3(CC2)OCCO3)CC1)N1CCOCC1` returned a z-score of -0.0498.

Compound `CC(C)C(C(=O)Nc1cccnc1)N1C(=O)c2ccccc2C1=O` (configuration not stated) showed a z-score of 0.0029.

For the compound `CCN1C(=O)c2cccc3c(S(=O)(=O)NCCc4c[nH]c5ccccc45)ccc1c23`, the z-score was found to be 0.837.

In turn, `Cn1c(=O)c2c(SCc3c(F)cccc3Cl)nc(CC(C)(C)C)nc2n(C)c1=O` displayed a z-score of 0.37.

`O=C(NC(=S)Nc1nc(-c2ccc(Br)cc2)cs1)c1cccnc1` showed a z-score of 0.00657.

In turn, `O=[N+]([O-])c1ccc(/C=N/N/C(=N/c2ccccn2)c2ccccn2)cc1` gave a z-score of 0.00507.

In turn, `CSc1nc(N(C)NC(=O)c2ccc(Cl)cc2)c2ccccc2n1` came in with a z-score of -0.0629.

For the compound `CCCNC(=O)Cn1cccc1C(=O)c1ccccc1`, the z-score was -0.232.

`O=C1c2oc3ccccc3c(=O)c2C(c2cccc(Br)c2)N1Cc1ccco1` (configuration not stated) yielded a z-score of -0.157.

On to `Nc1ccc2c(c1)CCC2=O`, for which the z-score is -0.0288.

Compound `O=C(Cn1cnc2c(nnn2Cc2ccc(Cl)cc2)c1=O)NCc1ccco1` displayed a z-score of 0.0401.

Compound `Cc1cc(C)n(CC2CC(=O)N(c3ccc(C)c(Cl)c3)C2=O)n1` (configuration not stated) yielded a z-score of -0.0305.

Compound `COc1ccc(/C=N/NC(=O)c2nn(-c3ccc(Cl)cc3)c(=O)c3c(N)scc23)cc1` yielded a z-score of -0.151.

The compound `CCn1cc(C2C3=C(CC(C)(C)CC3=O)N(c3ccccc3)C3=C2C(=O)CC(C)(C)C3)c(C)n1` came in with a z-score of -0.0273.

For `O=C(c1cccc(Cl)c1)c1nn(-c2ccccc2)c(=O)cc1C(F)(F)F`, the z-score is -0.401.

For the compound `N#Cc1ccc(NC(=O)CCc2ccc(S(=O)(=O)N3CCOCC3)cc2)cc1`, the z-score was -0.409.

With `Cc1cccc(C)c1NC(=O)/C(C#N)=C/c1ccsc1`, the z-score is -0.11.

As to `CCN1CCN(Cc2c(OC)ccc3ccccc23)CC1`, the z-score turned out to be 0.735.

On to `COc1cc(C)c(S(=O)(=O)N2CCOCC2)cc1C(C)C`, for which the z-score amounted to 0.397.

For the compound `NC(=O)NC(CC(=O)OCC(=O)NC(=O)NCc1ccco1)c1ccc(Cl)cc1` (configuration not stated), the z-score was -0.0975.

`CN(C)c1ccc(CN2CCCCC2)cc1` registered a z-score of -0.0849.

`O=C(CCCN1C(=O)c2cccc3cccc(c23)C1=O)N1CCN(Cc2ccc3c(c2)OCO3)CC1` yielded a z-score of -0.796.

In turn, `CCOC(=O)C1CCCCN1Cc1cccc(OC)c1OC` (configuration not stated) came in with a z-score of 0.109.

Take `CCCCSc1nc2c(cc1C#N)CCC2`: the z-score turned out to be 0.273.

`N#Cc1c(NC(=O)CSc2nnnn2C2CCCCC2)sc2c1CCCC2` registered a z-score of -0.0604.

Compound `O=C1C2C3C=CC(C3)C2C(=O)N1c1cccc(-c2nc3ccccc3o2)c1` (configuration not stated) returned a z-score of 0.102.

The compound `COc1ccc(CNc2ccc(C)cc2)cc1Br` displayed a z-score of -0.124.

The compound `COc1ccc(Nc2ncccc2C(=O)O)cc1` yielded a z-score of -0.0336.

The compound `CC(=O)N/C(=C\c1cccc([N+](=O)[O-])c1)C(=O)NC(C)C` gave a z-score of 0.0641.

Turning to `CC(C)CCOc1ccc(C(CC(N)=O)C(=O)O)cc1` (configuration not stated), the z-score was -0.256.

`CC(=O)c1cccc(NC(=O)COc2ccccc2)c1` showed a z-score of -0.673.

Take `Cc1sc(NC(=O)COc2ccccc2)c(C#N)c1-c1ccccc1`: the z-score came out at 0.602.

In turn, `CCOC(=O)c1cccc(NC(=O)CSc2nnc(COc3ccccc3)n2CC)c1` had a z-score of -1.08.

On to `CCOC(=O)N1CCN(C(=O)c2ccc3c(SCC(=O)O)c4c(nc3c2)CCCC4)CC1`, for which the z-score was 0.527.

The compound `Cc1cc(S(=O)(=O)NCCc2ccccc2)c(C)s1` showed a z-score of -0.396.

For the compound `COc1oc(-c2ccccc2)nc1C(F)(F)F`, the z-score was -0.327.

`CSc1nc2c(c(=O)n1-c1ccccc1)SCC2` showed a z-score of 0.578.

`Cc1ccc([N+](=O)[O-])c2cccnc12` registered a z-score of -0.158.

For the compound `O=C(CN1CCCCCC1)Nc1ccc(Br)cc1Br`, the z-score is -0.316.

Regarding `Cc1ccc(C(=O)c2c(NC(=O)c3ccccc3)sc(C)c2C)cc1`, the z-score was -0.0472.

The compound `O=C(O)CNC(=O)c1nc(-c2ccccc2)n(-c2ccccc2)n1` had a z-score of -0.225.

In the case of `O=C(c1ccccc1)N1CCCCC(S(=O)(=O)c2ccc3ccccc3c2)C1=O` (configuration not stated), the z-score is -0.273.

As to `O=C(Nc1ccc(NC(=O)c2cccs2)cc1)c1ccc(Br)o1`, the z-score is 0.0278.

`Cc1ccc(-n2nnnc2SCC(=O)NC2CCCc3ccccc32)cc1` (configuration not stated) came in with a z-score of -0.56.

The compound `CCn1cnc2sc(C(=O)N3CCN(Cc4ccc5c(c4)OCO5)CC3)c(C)c2c1=O` registered a z-score of 2.58.

Regarding `O=C(NCCCN1CCCC1)Nc1cccc2ccccc12`, the z-score is -0.463.

`COc1ccccc1C(=O)Nc1nc2ccc(S(C)(=O)=O)cc2s1` displayed a z-score of 0.884.

Take `C=CCN(CC(=O)NCc1ccc(F)cc1)C(=O)c1csnn1`: the z-score was 0.333.

As to `CSc1nc2nc3c(cn2n1)C(=O)CC(c1ccccc1)C3` (configuration not stated), the z-score is -0.316.

`CC(Oc1ccccc1Cl)c1nnc(N)s1` (configuration not stated) yielded a z-score of -0.454.

As to `CC1CCCCN1C(=S)Nc1ccc2nc3n(c(=O)c2c1)CCCCC3` (configuration not stated), the z-score was -0.133.
